Experimental data as given in patent CN115677859A (HEFEI HANKEMAB BIOTECHNOLOGY CO LTD; ANHUI ANKE …, dated 2023).

Assays:
[1] = biological target: T1, 人4-1BB全长, 表达于细胞 (CHO-K1/h4-1BB; HEK-293/NFκB-Luci/4-1BB) (human, UniProt Q07011 24-255); assay: flow cytometry on CHO-K1/h4-1BB cells
T1 construct: also called 细胞表面人4-1BB抗原

[2] = biological target: T2, 人PD-L1全长, 表达于CHO-K1细胞 (CHO-K1/hPD-L1; CHO-K1/PDL1/TCR) (human, UniProt Q9NZQ7); assay: flow cytometry on CHO-K1/hPD-L1 cells, 4-parameter logistic fit
T2 construct: Full-length human PD-L1 transfected into CHO-K1 cells; also called 细胞表面人PD-L1抗原

[3] = biological target: T3, 人4-1BB胞外段, 带鼠Fc标签 (human 4-1BB extracellular domain with mouse Fc tag, Example 5) (human, UniProt Q07011 24-186); assay: bridging ELISA: PD-L1-His coated, bispecific, then 4-1BB-mouse Fc, anti-mouse HRP
T3 construct: also called 抗原人4-1BB; not shown: mouse Fc tag

[4] = biological target: T4, 人4-1BB胞外段 (human 4-1BB extracellular domain, HEK293-expressed, Example 4) (human, UniProt Q07011 24-186); assay: ELISA, human 4-1BB ECD coated, anti-human IgG HRP
T4 construct: also called 人4-1BB抗原; CD137

[5] = biological target: T2, 人PD-L1全长, 表达于CHO-K1细胞 (CHO-K1/hPD-L1; …); assay: flow cytometry on CHO-K1/hPD-L1 cells, anti-human FITC

Sequence of UniProt Q9NZQ7 (Q9NZQ7 19-290 limits assumed): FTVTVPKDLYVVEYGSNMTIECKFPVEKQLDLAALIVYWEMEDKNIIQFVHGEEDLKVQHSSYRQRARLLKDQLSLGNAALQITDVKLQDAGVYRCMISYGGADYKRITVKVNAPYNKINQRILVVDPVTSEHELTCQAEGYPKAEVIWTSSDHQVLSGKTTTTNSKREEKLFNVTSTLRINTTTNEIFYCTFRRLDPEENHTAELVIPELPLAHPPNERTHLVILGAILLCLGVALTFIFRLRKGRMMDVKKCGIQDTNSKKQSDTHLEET

B1: 抗人PD-L1/4-1BB双特异性抗体 结构A (anti-4-1BB scFv-(G4S)2-IgG4 Fc-(G4S)3-anti-PD-L1 scFv) (bispecific antibody)
chain: DIQMTQSPSSLSASLGDRVTISCSASQGISNYLNWYQQKPDGTVKLLIYYTSTLHSGVPSRFSGSGSGTDYTLTISSLQPEDIATYYCQQYSKLPWTFGCGTKLEIKGGGGSGGGGSGGGGSGGGGSQVQLQESGPGLVKPSETLSLTCTVSGSSLTSYGVHWVRQPPGKCLEGLGVIWPGGSTNYNSALMSRVTISKDNSKSQVSLKMSSLTAADTAVYYCARVTGTWYFDVWGQGTTVTVSSGGGGSGGGGS[human IgG4 Fc with S228P F234A L235A (EU numbers) not shown]GGGSGGGGSGGGGSDIQMTQSPSTLSASVGDRVTITCQSSQNVYSNNRLSWYQQKPGKAPKLLIYWTSFLASGVPSRFSGSGSGTEFTLTISSLQPDDFATYYCAGGYSGNLYTFGCGTKLEIKGGGGSGGGGSGGGGSGGGGSDVQLVESGGGLVQPGGSLRLSCTVSGIDLSSYDMTWVRQAPGKCLEYIGYISYVSRTYYADSVKGRFTISKDTSKNTVYLQMNSLRAEDTAVYYCARDRPDGAATNLWGQGTLVTVSS
notes: also called A结构
binding result [1]: binds
EC50 [2]: 7.34 nM
binding result [3]: binds
binding result [4]: binds
FACS fluorescence signal at 0.308 nM (name of read-out not given) [5]: 505
FACS fluorescence signal at 0.617 nM (name of read-out not given) [5]: 671
FACS fluorescence signal at 1.851 nM (name of read-out not given) [5]: 1200
FACS fluorescence signal at 5.555 nM (name of read-out not given) [5]: 3340
FACS fluorescence signal at 16.666 nM (name of read-out not given) [5]: 8000
FACS fluorescence signal at 50 nM (name of read-out not given) [5]: 8730
